In all, about 310,000 compounds went through this assay and about 14,000 (4.5%) showed an effect of 50% or more. The effect is printed as a negative number. Some of the results follow.
These compounds were tested against human ether-à-go-go-related gene (hERG) potassium channel (human, UniProt Q12809) (assay: primary screen, population patch clamp on CHO cells stably expressing hERG).
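Further: peak tail current of the secondary pulse compared with the same well before compound.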

Chain of human ether-à-go-go-related gene (hERG) potassium channel (Q12809 whole entry, looked up): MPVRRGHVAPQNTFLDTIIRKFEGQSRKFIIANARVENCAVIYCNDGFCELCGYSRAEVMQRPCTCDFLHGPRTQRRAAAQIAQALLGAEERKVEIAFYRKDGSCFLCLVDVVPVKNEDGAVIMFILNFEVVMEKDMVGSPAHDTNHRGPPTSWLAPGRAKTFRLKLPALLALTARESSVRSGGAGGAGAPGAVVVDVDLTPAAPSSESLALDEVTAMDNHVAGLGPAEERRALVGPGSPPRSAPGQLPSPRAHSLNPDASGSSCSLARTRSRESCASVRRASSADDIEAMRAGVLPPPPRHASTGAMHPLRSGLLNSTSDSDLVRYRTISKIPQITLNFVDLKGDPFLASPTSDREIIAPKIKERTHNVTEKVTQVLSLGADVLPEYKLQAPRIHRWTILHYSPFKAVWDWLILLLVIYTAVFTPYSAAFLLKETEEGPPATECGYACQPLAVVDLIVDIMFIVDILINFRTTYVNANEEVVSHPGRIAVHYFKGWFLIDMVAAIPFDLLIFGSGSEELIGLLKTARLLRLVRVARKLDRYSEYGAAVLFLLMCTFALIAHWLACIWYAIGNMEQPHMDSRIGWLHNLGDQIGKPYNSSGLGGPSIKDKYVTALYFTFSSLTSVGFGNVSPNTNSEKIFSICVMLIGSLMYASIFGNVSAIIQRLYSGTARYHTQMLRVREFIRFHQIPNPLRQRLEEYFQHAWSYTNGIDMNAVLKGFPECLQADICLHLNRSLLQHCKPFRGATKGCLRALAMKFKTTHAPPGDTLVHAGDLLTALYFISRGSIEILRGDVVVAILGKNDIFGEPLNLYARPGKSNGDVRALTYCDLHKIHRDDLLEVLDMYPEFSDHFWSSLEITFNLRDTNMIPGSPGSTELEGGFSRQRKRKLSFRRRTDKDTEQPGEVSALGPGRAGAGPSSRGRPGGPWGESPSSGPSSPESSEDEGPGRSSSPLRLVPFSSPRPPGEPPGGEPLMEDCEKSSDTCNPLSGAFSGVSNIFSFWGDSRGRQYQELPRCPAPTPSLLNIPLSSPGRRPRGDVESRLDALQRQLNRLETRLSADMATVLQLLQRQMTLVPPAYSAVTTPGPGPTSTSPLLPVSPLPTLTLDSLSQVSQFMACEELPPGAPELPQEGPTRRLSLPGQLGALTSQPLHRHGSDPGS

Structure (SMILES) | hERG current change (%, negative = inhibition) at 10uM [%]
COc1cccc(-c2csc(N3CCN(CC(=O)NNC(=O)c4ccc(Br)cc4)CC3)n2)c1 | -1.9
CN(C)C(=O)c1cc(C(=O)c2ccc(C(F)(F)F)cc2F)c[nH]1 | -6.29
CCc1c(C)nc(SCC(=O)c2cccs2)c(C#N)c1C | -8.42
Cc1ccc(CN2CC(C(=O)Nc3ccccc3N3CCCC3)CC2=O)cc1 (centres unmarked) | -30.5
NC(=O)C1CCN(C(=O)COc2ccc(S(=O)(=O)NC3CCCC3)cc2)CC1 | 27
CCCNC(=O)c1cc(Cl)c(NC(=O)C2=CSCCO2)cc1OC | 16.5
CC(OC(=O)c1cccc(-n2cnnn2)c1)C(=O)Nc1ccc(F)cc1 (centres unmarked) | -22.8
NC(=O)c1ccc(Cn2c(C(=O)c3cc(Cl)c(N)c(Cl)c3)c3ccccc3[n+]2[O-])cc1 | -10.4
CC(=O)Nc1ccc(S(=O)(=O)c2cc(O)ccc2O)cc1 | 17
COc1ccc(OC)c2sc(NNC(=O)COc3ccccc3)nc12 | 13.8
O=C(CSc1nccc(=O)[nH]1)N1CCCc2ccccc21 | 11.4
O=C(c1sc2cc(F)ccc2c1Cl)N1CCN(c2ccccc2)CC1 | 4.93
CC(C)CCNC(=O)CN(Cc1ccc(F)cc1)C(=O)CCC(=O)Nc1ccccn1 | -28.1
COc1ccc(NC(=S)Nc2nc(CC(=O)Nc3ccccc3OC)cs2)cc1 | 0.296
CCn1c(SCC(=O)NCc2ccccc2)nc2nc3c(cc2c1=O)CCCC3 | -32.4
COc1ccc(-c2nnc(SCC(=O)NC3CCCC3)n2C)cc1 | 13.1
CCOC(=O)c1c(C)[nH]c(C(=O)Cn2nnc(-c3ccccc3)n2)c1C | 6.93
COc1ccc(COC(=O)c2ccc(Cl)c(S(=O)(=O)N3CCOCC3)c2)cc1F | -48.8
O=C(Nc1ccccc1C(=O)O)c1cccc(C(=O)Nc2ccccc2C(=O)O)c1 | 23.7
c1cc(CNc2ccc3c(c2)OCO3)ccn1 | -4.39
S=C(NCC1CCCCC1)Nc1cccnc1 | -12.5
CCOC(=O)C1CCCN(C(=O)CS(=O)(=O)Cc2ccccc2)C1 (centres unmarked) | 15.3

Structure (SMILES) | hERG current change (%, negative = inhibition) at 10uM [%]
CC1(C)Oc2ccc3ccc(=O)oc3c2/C(=N/O)C1=O | 20.4
CCCc1[nH]c(=O)c(C#N)c2c1CCCC2 | 25
COCCn1c(=S)[nH]c2cc(C(=O)N3CCc4ccccc43)ccc2c1=O | 12.9
CCCCCCCCN=Cc1c(O)[nH]c(=O)[nH]c1=O | 4.9
O=C(NC1CCCC1)C(c1ccncc1)N(Cc1cccs1)C(=O)c1csnn1 (centres unmarked) | -14.5
CCOC(=O)c1cc(-c2ccccc2)nn1CC1CC(c2ccc(Cl)cc2)=NO1 (centres unmarked) | -16.2
Cc1cc(NC(=O)CN2C(=O)NC(C)(c3ccc(OC(F)F)cc3)C2=O)no1 (centres unmarked) | -9.97
COc1cccc(NC(=O)c2nc(SC)ncc2Cl)c1 | 9.72
CCCN1C(=O)C(NS(=O)(=O)c2ccc(N)cc2)(C(F)(F)F)C(C(=O)OC)=C1C (centres unmarked) | 10.1
Nc1ncnc(Nc2ccccn2)c1[N+](=O)[O-] | 5.96
COc1ccccc1CCC(=O)N1CCC(n2nccc2NC(=O)CC(C)C)CC1 | -7.32
Cc1ccc2cc3cc(C(=O)NC4CCCCC4)oc3nc2c1 | 5.08
C[C@H](NC(=O)c1nc[nH]c1C(=O)NC1CC[NH2+]CC1)C(=O)OC(C)(C)C.[Cl-] | 12.1
COc1ccc(CCNC(=O)CCc2nnc(Cc3ccc4c(c3)OCO4)o2)cc1 | -2.67
COc1ccc2c(c1)OC[C@H]1[C@H]2N2C(=O)CN(Cc3ccc(F)cc3)C(=O)[C@@]2(C)[C@H]1c1ccccc1 | 3.71
O=C(CSc1cnc2ccccc2n1)c1ccc(F)cc1 | 21.2
Cn1c(SCc2nc(-c3cccs3)no2)nnc1C1CCCCC1 | -10
O=C(CCn1c(=O)c2sccc2n(Cc2cc(=O)n3ccccc3n2)c1=O)NCc1ccco1 | -20.3
O=C(OCc1cccc([N+](=O)[O-])c1)c1cc2ccccc2oc1=O | 20.7
COc1ccc(N2C(=O)CC(Cc3ccccc3OC)C2=O)cc1 (centres unmarked) | 13.2
Cc1ccc(Cn2c(=S)[nH]c3ccccc3c2=O)cc1 | 13.2
O=C(NC1CCCCCC1)c1ccc(CS(=O)Cc2cccc(Cl)c2)o1 (centres unmarked) | -12.7

Reference: PMC4336329 (PLoS ONE, 2015)
